Here are results for 34 variants from the RNAGym collection of RNA variant scans (doi:10.1093/nar/gkz1192).

B1: CPEB3 Ribozyme (parent)
chain: UAACAGGGGGCCACAGCAGAAGCGUUCACGUCGCAGCCCCUGUCAGAUUCUGGUGAAUCUGCGAAUUCUGCUGUAUAUCUC

The source gives no read counts; variants with many changes may rest on few reads.

In the series the parent is B1. In words: self-cleavage, relative activity (ratio to wild type); higher = more cleavage; in vitro, sequencing. The procedure, abridged: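 CPEB3 self-cleaving ribozyme mutant libraries were made by rounds of error-prone PCR, barcoded, and transcribed in vitro with T7 RNA polymerase for 5 hours at 37°C. Cleavage occurred during transcription and a 15 min DNase I step before EDTA stop. RNAs were reverse transcribed with template switching and Illumina-sequenced, with DNA sequencing mapping barcodes to variants. Relative activity is the variant's cleaved/total read fraction divided by wild type's (minimum 5 reads), averaged across three batches.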
Take UAACAGGGGGCCACAGCAGAAGCGUUCACGUCGCAGCCCCCGUCAGAUUCUGGUAAGUCUGCGAAUUCUGCUGUAUAUCUC: the self-cleavage is 0.67.
For the variant UAACAGGGGGCCACAGCAGAAGCGUUCACGUCGCAGCCCCCGUCAGAUUCCGGUGAAUCUGCGAAUUCUGCUGCAUAUCUC, the self-cleavage worked out at 1.17.
On to UAACAGGGGGCCACAGCAGAAGCGUUCACGUCGCAGCCCCCGUCAGAUCCUGGUGAAUCUACGAACUCUGCUGUAUAUCUC, for which the self-cleavage stood at 0.4.
On to UAACAGGGGGCCACAGCAGAAGCGUUCACGUCGCAGCCCCCGUCAGAUUCAGGUGAAUCUGCGAUUUCUGCUGUAUAUCUC, for which the self-cleavage came out at 0.57.
On to UAACAGGGGGCCACAGCAGAAGCGUUCACGUCGCAGCCCCGGUCGGAUUCUGGUGAAUCUGCGAAUUCUGCUGCAUAUCUC, for which the self-cleavage amounted to 0.61.
The figure for UAACAGGGGGCCACAGCAGAAGCGUUCACGUCGCAGCCCCCGUCAGAUUCUGGUGAAUCUGCGAAUUCUGCAGUAUAUCCC is 1.28.
Regarding UAACAGGGGGCCACAGCAGAAGCGUUCACGUCGCAGCCCCCGUCAGAAUCAGGAGAAUCUGCGAAUUCUGCUGAAUAUCUC, the self-cleavage turned out to be 0.74.
As for UAACAGGGGGCCACAGCAGAAGCGUUCACGUCGCAGCCCCGGUCAGAUUCUGGUGAAUCAGCGGAUUCUGCUGUAUAUCUC, the self-cleavage came to 0.16.
As for UAACAGGGGGCCACAGCAGAAGCGUUCACGUCGCAGCCCCCGUCAGAUUCUGGUGAAUCCGCGAAUUCUGCUAUAUAUCUC, the self-cleavage is 1.17.
As for UAACAGGGGGCCACAGCAGAAGCGUUCACGUCGCAGCCCCCGUCAGACUCUGGUGAUUCUGCGAACUCUGCUGUAUAUCUC, the self-cleavage worked out at 0.12.
Turning to UAACAGGGGGCCACAGCAGAAGCGUUCACGUCGCAGCCCCCGUCAGACUCUGGUGAAUCUGCGAAUUCUACUGUAUAUCUC, the self-cleavage came out at 0.47.
For UAACAGGGGGCCACAGCAGAAGCGUUCACGUCGCAGCCCCCGUCAGAUUCUGGUGAAUCUGCGAAUUAUGCUGUAUAACUC, the self-cleavage came to 0.23.
The figure for UAACAGGGGGCCACAGCAGAAGCGUUCACGUCGCAGCCCCCGUCAGAUUCUGGUGAAUCCGCGAAUUCUGCUGUAUAUCUA is 0.64; for UAACAGGGGGCCACAGCAGAAGCGUUCACGUCGCAGCCCCGGUCAGAUUCUGGCGAAUCUGCGAAUUCAGCUGUAUAUCUC it is 0.1.
Consider UAACAGGGGGCCACAGCAGAAGCGUUCACGUCGCAGCCCCCGUCAGAUUCUGGCGAGUCUGCGAUCUCUGCUGUAUAUUAC, for which the self-cleavage came to 0.11.
On to UAACAGGGGGCCACAGCAGAAGCGUUCACGUCGCAGCCCCCGUCAGAUUCUGGUGAAUCAGCGGAUUCUGCUGUAAAUCUC, for which the self-cleavage was found to be 0.28.
Consider UAACAGGGGGCCACAGCAGAAGCGUUCACGUCGCAGCCCCCGUCAGAAUCUGGCGAAUCUGCGAACUCUGCUGUAUAUCUC, for which the self-cleavage was determined as 0.12.
UAACAGGGGGCCACAGCAGAAGCGUUCACGUCGCAGCCCCUAUCAGAUUCUGGUGUAUCUGCGAAUUCUGUUGUAUAUCUC: the self-cleavage came out at 0.06.
For the variant UAACAGGGGGCCACAGCAGAAGCGUUCACGUCGCAGCCCCCGCCAGAAUCUGGUGAGUCUGCGAAUUCUGCUGUAUAUCUC, the self-cleavage was 0.07.
UAACAGGGGGCCACAGCAGAAGCGUUCACGUCGCAGCCCCCGUCAGAUUCUGGUGAAUCUGCGAAUUCCGCAGUAUAUCUC: the self-cleavage was found to be 0.45.
Turning to UAACAGGGGGCCACAGCAGAAGCGUUCACGUCGCAGCCCCCGUCAGAUUCUGGUGAAUCUGCGAAUGCUGCUGUUUAUCUC, the self-cleavage came out at 0.47.
As for UAACAGGGGGCCACAGCAGAAGCGUUCACGUCGCAGCCCCCGCCAGACUCUGGUGAAUCUGCGAAUUCUGCUGUAUAUCUC, the self-cleavage came out at 0.49.
With UAACAGGGGGCCACAGCAGAAGCGUUCACGUCGCAGCCCCCGCCAGAUUCUGGUGAAUCUGCGUAUUCUGCUGUAUAUCUC, the self-cleavage was determined as 0.15.
Turning to UAACAGGGGGCCACAGCAGAAGCGUUCACGUCGCAGCCCCGGUCAGUUUCUGGUGAAUCUGCGAGUUCUGCUGUAUAUCUC, the self-cleavage came out at 0.08.
For UAACAGGGGGCCACAGCAGAAGCGUUCACGUCGCAGCCCCCGUCAGAUUCUGGUGAAUCCGCGGAUUCUGCUGUAUAUCUC, the self-cleavage stood at 0.33.
For the variant UAACAGGGGGCCACAGCAGAAGCGUUCACGUCGCAGCCCCCGUUAGAUUCUGGUGGAUCAGCGAAUUCUGCUGGAUAUUUC, the self-cleavage amounted to 0.27.
As for UAACAGGGGGCCACAGCAGAAGCGUUCACGUCGCAGCCCCCGUCAGAUUCUGGUGAAUCUGCGAAUUUUGCUGCUUAUCUC, the self-cleavage is 1.28.
For UAACAGGGGGCCACAGCAGAAGCGUUCACGUCGCAGCCCCCGUCAGAUUCUGGAGAAUCUGCGAAUCCUGCUGUAUGUCUC, the self-cleavage is 0.42.
As to UAACAGGGGGCCACAGCAGAAGCGUUCACGUCGCAGCCCCCGUCAGAUUCCGGUGAAUCUGCGAAUUCAGCCGUAUAUCUC, the self-cleavage was determined as 0.6.
On to UAACAGGGGGCCACAGCAGAAGCGUUCACGUCGCAGCCCCCGUCAGACUCUGGUGAAUCCGCGGAUACUGCUGUAUAUCUC, for which the self-cleavage came to 0.15.
Regarding UAACAGGGGGCCACAGCAGAAGCGUUCACGUCGCAGCCCCCGUCAGAUUCUGUUGAACCUGCGAAUUCUGCUGUAUAUCUC, the self-cleavage stood at 0.6.
Turning to UAACAGGGGGCCACAGCAGAAGCGUUCACGUCGCAGCCCCCGUCAGAUCCUGGUGGAUCUGCGAAUUCUGCUGUAUACCUC, the self-cleavage amounted to 1.21.
With UAACAGGGGGCCACAGCAGAAGCGUUCACGUCGCAGCCCCCGUCAGAUUCUGGUGAAUCUGCGAAAUCCGCUGUAUAUCUC, the self-cleavage is 0.15.
UAACAGGGGGCCACAGCAGAAGCGUUCACGUCGCAGCCCCCGUCAGAUCCUGGUGAGUCUGCGAAUUCUGCUGUAUAUCUC: the self-cleavage was determined as 0.45.
